PubChem BioAssay AID1461 (National Center for Advancing Translational Sciences (NCATS), 2008)
Among all 220,000 compounds or so, about 2,300 (1%) were called active. This list was built around the results that the source calls inconclusive (neither active nor inactive); the mix of calls is not that of the screen. Calls follow the shape of the dose curve; as a rule, active = well fitted inhibition curve with a large enough effect; inconclusive = small, poorly fitted or top-dose-only effect, or effect the other way; inactive = no such curve, though single readings can be large or run the other way. Potencies of inconclusive entries are left out as doubtful fits. More than one record can exist for a structure, and the calls need not agree.
Also: nearly all actives have a fitted effect of over 50% in size.
Potency is read from the fitted curve at half-maximal effect; tags tell the direction and shape of the fitted curve.

What follows are compounds tested against Neuropeptide S receptor (Homo sapiens) (UniProt Q6W5P4) (assay: qHTS Assay for Antagonists of the Neuropeptide S Receptor: cAMP Signal Transduction). Settings: CHO-NPSR cells, cAMP TR-FRET, antagonist mode; series mostly up to 38.3 µM.
Chain of UniProt Q6W5P4 (Q6W5P4 whole entry, looked up): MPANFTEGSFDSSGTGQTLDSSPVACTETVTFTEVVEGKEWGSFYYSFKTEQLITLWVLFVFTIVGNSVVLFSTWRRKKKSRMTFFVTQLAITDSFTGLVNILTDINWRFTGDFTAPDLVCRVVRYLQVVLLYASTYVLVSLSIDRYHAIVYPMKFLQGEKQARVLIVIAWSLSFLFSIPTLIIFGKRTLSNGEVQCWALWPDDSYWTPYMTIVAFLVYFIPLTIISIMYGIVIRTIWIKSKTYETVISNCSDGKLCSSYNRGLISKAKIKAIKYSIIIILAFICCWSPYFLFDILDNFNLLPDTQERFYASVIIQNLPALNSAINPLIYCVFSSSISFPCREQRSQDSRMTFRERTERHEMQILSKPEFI
In the case of `CCCCCCCCCCCCN1C(=O)CSC1c1cccnc1` (stereo not given), the Potency is reported as inconclusive [activator, single point].
In the case of `CN(c1cccc(Cl)c1)S(=O)(=O)c1cccc(C(=O)Nc2nc3ccccc3[nH]2)c1`, the Potency is reported as inconclusive [inhibitor, single point].
With `CCOC(=O)c1c(NC(=O)CCC(=O)N2CCOCC2)sc2c1CC(C)(C)OC2` the Potency was inconclusive [inhibitor, single point].
`COc1cc2c(cc1NC(=O)CSCC(=O)O)oc1ccccc12` was tested, and the Potency was “inactive”.
For `CCC(C)NC(=S)N1CCN(C(c2ccccc2)c2ccccc2)CC1` (stereo not given), the Potency was “inactive”.
With `CCc1cc2c(=O)n(Cc3ccco3)c(SCc3c(C)noc3C)nc2s1` the Potency was inconclusive [inhibitor, partial curve].
In the case of `COc1cc2c(cc1NC(=O)CSc1nnc(Cc3cccs3)n1Cc1ccco1)oc1ccccc12`, the Potency is reported as inconclusive [inhibitor, partial curve].
In the case of `O=C(CSc1nc(-c2ccco2)cc(C(F)(F)F)n1)N1CCN(c2cccc(Cl)c2)CC1`, the Potency is reported as inconclusive [inhibitor, partial curve, poor fit].
With `Cc1ccc([N+](=O)[O-])c(OCCCN2CCCCCC2)c1` the Potency was “inactive”.
In the case of `Cc1ccc(NC(=O)CN2C(=O)S/C(=C/c3ccc(O)c([N+](=O)[O-])c3)C2=O)cc1C`, the Potency is reported as inconclusive [activator, partial curve].
For `Cc1ccc(C(=O)OCC(=O)c2ccc[nH]2)s1`, the Potency was “inactive”.
In the case of `Cc1ccc(S(=O)(=O)N2CCN(C(=O)CSc3ncc(C(F)(F)F)cc3Cl)CC2)cc1`, the Potency is reported as inconclusive [inhibitor, single point].
In the case of `CCC(c1nnnn1C(C)(C)C)N(Cc1ccco1)Cc1cc2cccc(C)c2[nH]c1=O` (stereo not given), the Potency is reported as inconclusive [inhibitor, single point].
`COc1ccccc1NC(=S)N(Cc1ccccn1)Cc1ccccc1Cl` was tested, and the Potency was inconclusive [inhibitor, single point].
For `O=C(NCc1ccco1)c1cc2c(s1)CCCCC2`, the Potency was “inactive”.
With `CCOc1ccc(C2CC(c3cccc(OC)c3OC)n3nnnc3N2)cc1Cl` (stereo not given) the Potency was inconclusive [inhibitor, partial curve].
In the case of `CC(=O)NNc1nc(-c2ccccc2)c2cc(Br)ccc2n1`, the Potency is reported as “inactive”.
For `CC(C(=O)NCc1cccs1)N1C(=O)c2ccccc2C1=O` (stereo not given), the Potency was inconclusive [inhibitor, single point].
For `O=c1cc(C(F)(F)F)nc(-c2ccccc2OC(F)(F)F)[nH]1`, the Potency was inconclusive [activator, single point].
For `Cc1ccsc1C(=O)OCc1nc2ccccc2c(=O)[nH]1`, the Potency was “inactive”.
`Cc1ccc(S(=O)(=O)N2CCN(C(=O)c3cc4c(C)nn(-c5ccccc5C)c4s3)CC2)cc1` was tested, and the Potency was inconclusive [inhibitor, partial curve].
`Cc1ccc(-c2ccc(CCC(=O)O)n2NC(=O)c2ccco2)cc1` was tested, and the Potency was inconclusive [inhibitor, single point].
For `Cc1ccc2cc(C=C(C#N)C#N)c(N3CCCCC3)nc2c1`, the Potency was inconclusive [inhibitor, single point].
For `COc1cc(OC)cc(-c2nnc(SCc3cccc(C(=O)O)c3)o2)c1`, the Potency was inconclusive [inhibitor, partial curve, poor fit].
In the case of `Cc1ccc(C)n1-c1sc2c(c1C#N)CCC(C)C2` (stereo not given), the Potency is reported as “inactive”.
In the case of `COc1ccc(/C=C2\CCC(C3CCCC3)C2=O)cc1Cn1nc(C)cc1C` (stereo not given), the Potency is reported as inconclusive [inhibitor, single point].
With `CCOC(=O)c1sc(=S)n(-c2ccc(C)cc2)c1SC` the Potency was inconclusive [inhibitor, partial curve].
With `CCCCC1=CC2=C(c3ccco3)C(=O)C(C)(OC(=O)c3ccc(OC)cc3)C(=O)C2=CN1CC(C)C` (stereo not given) the Potency was active: 10 µM.
In the case of `c1ccc(-c2cc3ccccc3nc2N2CCCC2)cc1`, the Potency is reported as “inactive”.
For `COc1ccc(NC(=S)NC(=O)CC(C)C)c(OC)c1`, the Potency was “inactive”.
`S=C(NCCc1ccccc1)Nc1cnc2ccccc2c1` was tested, and the Potency was “inactive”.
With `CCOc1ccccc1OCCCCN1CCCC1` the Potency was “inactive”.
In the case of `CCN(CC)c1ccc(/C=C(\C#N)C(=O)NCc2ccco2)cc1`, the Potency is reported as inconclusive [inhibitor, single point].
With `COc1cc(CNCCO)cc(Cl)c1OCc1ccc(Cl)cc1Cl` the Potency was inconclusive [inhibitor, single point].
For `Cc1ccccc1-n1nc2c(c1NC(=O)c1c(-c3ccccc3Cl)noc1C)CSC2`, the Potency was inconclusive [inhibitor, partial curve].
For `Cc1ccc(CNC(=O)c2cc3c(=O)n4ccccc4nc3n(Cc3ccco3)c2=N)cc1`, the Potency was inconclusive [inhibitor, single point].
For `CCc1nn(CC(=O)NCCCN(CC)c2cccc(C)c2)c(=O)c2cc3occc3n12`, the Potency was inconclusive [inhibitor, single point].
For `Nc1nc(-c2ccccc2)c(N=Nc2cccc3ccccc23)s1`, the Potency was inconclusive [inhibitor, single point].
`C(=N\n1cnnc1)/c1cn(Cc2ccccc2)c2ccccc12` was tested, and the Potency was “inactive”.
For `Cc1ccc(-n2c(SCC(=O)Nc3ccc4c(c3)OCO4)nnc2-c2ccoc2C)cc1`, the Potency was inconclusive [inhibitor, single point].
With `CCC(=O)NC(=S)Nc1ccc(NC(=O)COc2ccc(Cl)cc2Cl)cc1` the Potency was inconclusive [inhibitor, single point].
For `CCCCS(=O)(=O)c1sc2nc3c(cc2c1N)CCCC3`, the Potency was inconclusive [inhibitor, partial curve].
With `COc1cc(OC)cc(C(=O)OC/C(O)=C(\C#N)c2nc3ccccc3[nH]2)c1` the Potency was “inactive”.
In the case of `N#Cc1c(N2CCCCC2)nc(N)c2c(N)nc3c(c12)CC(c1ccccc1)O3` (stereo not given), the Potency is reported as inconclusive [inhibitor, partial curve].
For `O=C(N/N=C/c1cccc(O)c1)c1ccccc1O`, the Potency was inconclusive [inhibitor, single point].
In the case of `Cc1noc(C)c1CN(C(=S)NC1CC2CCC1C2)c1ccccc1` (stereo not given), the Potency is reported as inconclusive [inhibitor, single point].
For `C=CCN(C)CCCNC(=O)/C=N/O`, the Potency was “inactive”.
In the case of `Nc1nnc(CC(=O)N/N=C/c2cc([N+](=O)[O-])cc(Br)c2O)s1`, the Potency is reported as “inactive”.
For `Cn1c(C(=O)NCCN2CCN(Cc3ccccc3)CC2)cc2c(=O)n(C)c3ccccc3c21`, the Potency was inconclusive [inhibitor, single point].
With `CC(C)OC(=O)CC1C(=O)NCCN1C(=S)NC(=O)c1cccs1` (stereo not given) the Potency was inconclusive [activator, single point].
With `Cc1ccccc1-c1nc(CN2CCC(C(=O)NCCC3=CCCCC3)CC2)c(C)o1` the Potency was inconclusive [inhibitor, single point].
`CC(C)C[C@H](CO)Nc1nc(Nc2cccc(Cl)c2)c2ncn(C(C)C)c2n1` was tested, and the Potency was inconclusive [inhibitor, single point].
In the case of `COc1ccc(C)cc1NC(=O)CN1CCN(c2ccccc2F)CC1`, the Potency is reported as inconclusive [inhibitor, single point].
In the case of `Cc1ccc(C(=O)/C=C/C(=O)c2ccc(C)cc2)cc1`, the Potency is reported as inconclusive [inhibitor, single point].
With `O=C(Nc1ccc(F)cc1)Nc1ccc(N2CCCC2)c(S(=O)(=O)Nc2ccccc2Cl)c1` the Potency was active: 10 µM.
In the case of `Clc1ccccc1-c1nnc2sc(-c3ccc(Br)o3)nn12`, the Potency is reported as inconclusive [inhibitor, single point].
With `COC(=O)c1ccccc1NC(=O)C1COc2ccccc2O1` (stereo not given) the Potency was inconclusive [inhibitor, partial curve, poor fit].
With `Cc1nc2ccc3nc(NC(=O)c4ccc(S(=O)(=O)N5CCOCC5)cc4)sc3c2s1` the Potency was “inactive”.
For `C(=C\c1ccccc1)/CN1CCN(C(c2ccccc2)c2ccccc2)CC1`, the Potency was active: 12.6 µM.
With `C=CCOC(=O)C1=C(C)NC(SCC(=O)Nc2nccs2)=C(C#N)C1c1ccc(Cl)cc1` (stereo not given) the Potency was inconclusive [inhibitor, single point].
With `O=C(CC1(O)C(=O)Nc2ccccc21)c1ccc(-n2cccc2)cc1` (stereo not given) the Potency was “inactive”.
With `O=C(c1ccc(COc2c(F)c(F)cc(F)c2F)o1)N1CCN(c2ccc(Cl)cc2)CC1` the Potency was inconclusive [inhibitor, single point].
With `COc1cccc(NC(=O)CSc2ncnc3c2oc2ccccc23)c1` the Potency was inconclusive [inhibitor, single point].
For `CC12CC3CC(C)(C1)CC(Nc1nc(N4CCOCC4)nc4ccccc14)(C3)C2`, the Potency was inconclusive [activator, partial curve].
For `O=C(O)c1ccc(N/N=C/c2ccc(-c3ccccc3Cl)o2)cc1`, the Potency was inconclusive [inhibitor, single point].
With `COc1ccc(-c2cc(C(=O)OCC(=O)NC(C)(C)C)c3ccccc3n2)cc1` the Potency was inconclusive [inhibitor, single point].
With `COc1ccc(OC)c2c(C)cc(NCCN3CCOCC3)nc12` the Potency was inconclusive [inhibitor, partial curve].
In the case of `Cn1c2c(c(=O)n(C)c1=O)C(C(F)(F)F)(C(F)(F)F)N=C(c1ccccc1Cl)N2`, the Potency is reported as “inactive”.
`O=C(CSc1nc(C2CC2)nc2ccccc12)N1c2ccccc2Sc2ccc(C(F)(F)F)cc21` was tested, and the Potency was active: 7.94 µM.
In the case of `C=CCCC(=O)Nc1nc(C)c(-c2csc(Nc3cccc(OC)c3)n2)s1`, the Potency is reported as inconclusive [inhibitor, full curve, poor fit].
